Here are results for ten compounds from the antibiotic and cytotoxicity screens of Wong et al. (2023).

In one assay the test system is HSkMC. Description: cytotoxicity call (relative viability < 0.9). As to conditions: 10 µM.
In a further assay the test system is HepG2. Description: cytotoxicity call (relative viability < 0.9). The settings on record: 10 µM.
In a further assay the test system is S. aureus RN4220. Description: growth inhibition call (relative growth <= 0.2). As to conditions: 50 µM.

The other results are listed elsewhere or left out.

For `C[C@@H]1CN([C@H](C)CO)C(=O)c2cccc(NC(=O)CCCCCC(=O)Nc3ccccc3N)c2O[C@@H]1CN(C)S(C)(=O)=O`, the cytotoxicity call in the assay with HSkMC and with HepG2 was “inactive” each time. Further, the growth inhibition call in the assay with S. aureus RN4220 was “inactive”.

As to `Cc1ccc(S[C@]2(C(=O)NC3CC3)CC(=O)N(Cc3ccccc3C(F)(F)F)[C@@H]2c2ccc(CO)cc2)cc1`, the cytotoxicity call in the assay with HSkMC and with HepG2 was “inactive” in each case. Moreover, in the assay on S. aureus RN4220, the growth inhibition call is “inactive”.

On to `C#Cc1nccnc1OC`, for which the cytotoxicity call in the assay on HSkMC and in the assay on HepG2 was “inactive” in each case. The growth inhibition call in the assay on S. aureus RN4220 is “inactive”.

Take `O=C(NCC(O)CO)c1c(I)c(C(=O)NCC(O)CO)c(I)c(N(CCO)C(=O)CO)c1I` (stereo not given): the cytotoxicity call in the assay on HSkMC is “inactive”. For the same compound, the cytotoxicity call in the assay with HepG2 is “active”. The growth inhibition call in the assay with S. aureus RN4220 was “inactive”.

Take `C[C@@H]1CN([C@@H](C)CO)C(=O)Cc2cc(NS(=O)(=O)c3ccccc3)ccc2O[C@H]1CN(C)Cc1ccc(C(=O)O)cc1`: the cytotoxicity call in the assay on HSkMC and in the assay on HepG2 was “inactive” in each case. Also, the growth inhibition call in the assay on S. aureus RN4220 is “inactive”.

Turning to `Cc1noc(C)c1NC(=O)Nc1ccc2c(c1)CC(=O)N([C@H](C)CO)C[C@H](C)[C@@H](CN(C)C(=O)Nc1cccc3ccccc13)O2`, the cytotoxicity call in the assay with HSkMC and in the assay on HepG2 was “inactive” each time. Moreover, the growth inhibition call in the assay on S. aureus RN4220 was “inactive”.

On to `CCCC(=O)Nc1ccc2c(c1)C(=O)N(C)C[C@@H](OC)[C@@H](C)CN(Cc1ccc(-c3ccccn3)cc1)[C@H](C)CO2`, for which the cytotoxicity call in the assay with HSkMC and in the assay on HepG2 was “inactive” throughout. Besides, the growth inhibition call in the assay on S. aureus RN4220 is “inactive”.

Consider `CC(C)NC(=O)N(C)C[C@@H]1OCCCC[C@H](C)Oc2ccc(NC(=O)Nc3ccc(C(F)(F)F)cc3)cc2C(=O)N([C@@H](C)CO)C[C@@H]1C`, for which the cytotoxicity call in the assay on HSkMC and with HepG2 was “active” each time. Also, the growth inhibition call in the assay with S. aureus RN4220 is “inactive”.

For the compound `C[C@H]1CN([C@@H](C)CO)C(=O)c2cc(NS(C)(=O)=O)ccc2O[C@H]1CN(C)S(C)(=O)=O`, the cytotoxicity call with HSkMC and in the assay on HepG2 was “inactive” in each case. Besides, the growth inhibition call in the assay on S. aureus RN4220 was “inactive”.

In the case of `C[C@H]1CN([C@@H](C)CO)C(=O)c2cc(C#CCN(C)C)cnc2O[C@@H]1CN(C)C(=O)Nc1cccc(F)c1`, the cytotoxicity call in the assay on HSkMC (human skeletal muscle cells) and with HepG2 was “inactive” throughout. Moreover, in the assay with S. aureus RN4220, the growth inhibition call is “inactive”.
